PubChem BioAssay (NCI)
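Grown in 96-well plates, cells were treated for 48 hours with each compound at five concentrations. Insufficient inhibition: endpoint recorded as highest concentration tested. At the GI50, growth is halved. TGI: concentration producing complete growth inhibition.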

test system: NCI-H322M lung; assay: NCI-60 cell line screen, 48 h

Structure (SMILES) | GI50 | TGI
COc1ccc(-c2cc(-c3cccc4ccccc34)n3c(n2)nc2ccccc23)cc1OC | 7.36 µM | > 100 µM
Cc1cc(Cl)cc(NS(=O)(=O)c2ccc(-c3cnc(C4CC4)o3)cc2)c1 | 0.71 µM | 23.7 µM
CN(C)c1ccc(-c2cc(-c3c[nH]c4ccccc34)nc(N)c2C#N)cc1 | 3.3 µM | 17.1 µM
O=C1NC(=C(Cl)Cl)/C(=N/S(=O)(=O)N2CCCCC2CC2(C(F)(F)F)N=N2)N1 (stereo not drawn) | 2.91 µM | 11.2 µM
